In the RNAGym collection of RNA variant scans (doi:10.7554/elife.90254):
The source gives no read counts; variants with many changes may rest on few reads.

B1: LINE1-mini (parent)
chain: GGCAGAGCUCAACACAGCGUGGCAAAGUGGCUGUGGCUAGACUGCC

Variants of: B1
Assay: self-cleavage, relative activity (ratio to wild type); higher = more cleavage; in vitro, sequencing; the parent is a self-cleaving ribozyme

Variant	self-cleavage
GGCAGAGCUCGAAACAGCGUGGCAAAGAGGCUGGGGCUAGACUGCC	0.01
GGCAGAGCUCGAGACCGCACUGCAAAGUGGCUGUGGCUAGACUGCC	0.01
GGCAGAGCUCGAGACCGCGUGGCAAAGUGGCUGUGCCUAGACUGCC	0
GGCAGAGCUCGAGACAGCGUGGCUAAGUGGCUGUGGUUAAGCUGCC	0.02
GGCAGAGCUCGAGAUAGCGUGGCAAAGUGGCUGUGGCUAGACUGCC	0.04
GGCAGAGCUCGAGACAGCGUGGCAAAGUGGUUGUGGCUAAACUCCC	0.01
GGCAGAGCUCGAGACAGCGUGGCAAAGUGACUGUGGCUAGACUGCC	0.03
GGCAGAGCUCGAUACAGCGUGGCAAAGUGGUUGUGGCUAGACUGCC	0.02
GGCAGAGCUCGAUACAGCGUGGCAAAGUGGCUGUAGCUAGACUGCC	0.23
GGCAGAGCUCGAUACAGCGUGGCAAAGUGGCUGUGGCUAGACUUCC	0.03
GGCAGAGCUCGACAAAGCGUGGAAAAGUGGCUGUGGCUAGACUGCC	0.03
GGCAGAGCUCGACAAAGCGUGGCAAAGUGGGUGUGGCUCGACUGCC	0
GGCAGAGCUCGACAAAGCGUGGCAAAGUGGCUGUGGCUAGACUGCG	0.01
GGCAGAGCUCGACAAAGCGUGGCAAAGUGGCUGUGCCUAGACUGCC	0.06
GGCAGAGCUCGACAGAGCGUGGCAAAGUGGCUGUAUCUAGACUGCC	0.01
GGCAGAGCUCGACAGAGCGAGGCAAAGUGGCUGUGGCUAGACUGCC	0.01
GGCAGAGCUCGACAUAGCGUGGCAAAGUGGCUGUGGCUAGAAUGCC	0
GGCAGAGCUCGACAUAGCGUGGCAAAGUGGCUGCGGCUAGACUGGC	0.02
GGCAGAGCUCGACACAGAAUGGCAUAGUGGUUGUGGCUAGACUGCC	0.01

Variant	self-cleavage
GGCAGAGCUCGACACAGAGAGGCAAAGUGGCUGUGGCUAGACUGCC	0
GGCAGAGCUCGACACAGAGUGGCAAAGCGGCUGUGGCUAGACUGAC	0.02
GGCAGAGCUCGACACAGAGUGGCAAAGUGGCUGUGGCUAGACGGCC	0.02
GGCAGAGCUCGACACAGGGUGGCAAAGUGGCUGUGGCUAGGCUGCC	0.02
GGCAGAGCUCGACACAGGUUGGCAAAGUGGCUGUGGCUAGACUGCC	0.01
GGCAGAGCUCGACACAGGGUAGCAACGUGGCUGUGACUAGACUGCC	0.04
GGCAGAGCUCGACACAGGGUCGAAAAGUGGCUGUGGCUAUACUGCC	0.01
GGCAGAGCUCGACACAGCGUGGAAAAGUGGAUGUGGCUAGACUGCC	0.03
GGCAGAGCUCGACACAGCGUGGAAAAGUUGCUGUGGCUAGACUGCC	0.02
GGCAGAGCUCGACACAGCGUGGUUAAGUGGCUGUGGCUAGACUGCC	0.01
GGCAGAGCUCGACACAGCGUGGCAAAGUGGAUGUGGGUAGACUGCC	0.01
GGCAGAGCUCGACACAGCGUGGCAAAGUGGAUGUGGCUAGACUGAC	0
GGCAGAGCUCGACACAGCGUGGCAAAGUGGUUGUGGCUAGGCUGCC	0.01
GGCAGAGCUCGACACAGCGUGGCAAAGUGGCUGUGGACAGACUGCC	0.03
GGCAGAGCUCGACACAGCGUGGCAAAGUGGCUGUGGUUAGCCUGCC	0.01
GGCAGAGCUCGACACAGCGUGGCAAAGUGGCUGUGGCUAGAUUACC	0.01
GGCAGAGCUCGACACAAAGUGGCAAAGUGGCUGUGGAUAGACUUCC	0.04
GGCAGAGCUCGACACAACGUGGCAAAGUGGCUUUGGCUAGACUGCC	0.03
GGCAGAGCUCGACACACCGUGGUAAAGUGGCUGUGGCUAGACUGCU	0.03

Variant	self-cleavage
GGCAGAGCUCGACACACCGUGGCAAAGUGGGUGUGGCUAGACUGCC	0.04
GGCAGAGCUCGACACACCGUGGCAAAGUGGCUGCGGCUAGACUGCC	0.04
GGCAGAGCUCGACACAGCAUGGCAAAGUGUCUGUGGCUUGACUGUC	0.05
GGCAGAGCUCGACACAGCCUGGCAAAGUGGCUAUGGCUAGACUGCC	0.01
GGCAGAGCUCGACACAGCCGGGCAGGGUGGCUGUGGCUAGACUGCC	0.01
GGCAGAGCUCGACACAGCUUGGCAGAGUGGCAGUCGCUAGACUGCC	0.01
GGCAGAGCUCGACACAGCGUAGCAAAAAGGCUGUGGCUAGACUGCC	0
GGCAGAGCUCGACACAGCGUAGCAAAGUAACUGUGAGUAGACUGCC	0
GGCAGAGCUCGACACAGCGUAGCAAAGUCGCUGCGGCUAGACUGAC	0.01
GGCAGAGCUCGACACAGCGUCGCAAAGUGGCUUUGGCUAGACUGCC	0.03
GGCAGAGCUCGACACAGCGUUGCAAAGUGGCUGUGACUAGACUGCC	0.08
GGCAGAGCUCGACACAGCGUGAAAAAGUGGCUGUGCCUAGACUGCC	0.02
GGCAGAGCUCGACACAGCGUGACAAAGUGGCUGUGGCCAGAUUGCC	0.04
GGCAGAGCUCGACACAGCGUGUCAUAGUGGCUGUGGCUAGACUGCC	0.04
GGCAGAGCUCGACACAGCGUGUCAAAGUAGCUGUGGCUAGACUGCC	0.1
GGCAGAGCUCGACACAGCGUGGCAAAAUGGCUGGGGCUAGACUGCC	0.01
GGCAGAGCUCGACACAGCGUGGCAAACUGGUUGUGGCUAGACUGCC	0.04
GGCAGAGCUCGACACAGCGUGGCAAACUGCCUGCGGCUAGACUGCC	0.01
